Here are results for 153 variants from a collection of fitness landscapes (doi:10.1126/science.1257360).

Some of the results follow. Bounds are passed on as bounds.

B1: PhoQ; a variant is named by its letters at X, in order, P23837 (parent)
chain: MKKLLRLFFPLSLRVRFLLATAAVVLVLSLAYGMVALIGYSVSFDKTTFRLLRGESNLFYTLAKWENNKLHVELPENIDKQSPTMTLIYDENGQLLWAQRDVPWLMKMIQPDWLKSNGFHEIEADVNDTSLLLSGDHSIQQQLQEVREDDDDAEMTHSVAVNVYPATSRMPKLTIVVVDTIPVELKSSYMVWSWFIYVLSANLLLVIPLLWVAAWWSLRPIEALAKEVRELEEHNRELLNPATTRELTSLVRNLNRLLKSERERYDKYRTTLTDLTHSLKTPLXXLQXXLRSLRSEKMSVSDAEPVMLEQISRISQQIGYYLHRASMRGGTLLSRELHPVAPLLDNLTSALNKVYQRKGVNISLDISPEISFVGEQNDFVEVMGNVLDNACKYCLEFVEISARQTDEHLYIVVEDDGPGIPLSKREVIFDRGQRVDTLRPGQGVGLAVAREITEQYEGKIVAGESMLGGARMEVIFGRQHSAPKDE

The variants in the assay derive from B1. Kind of assay: enrichment ratio after two sorts for PhoP signalling (ratio (wild type AVST 3.29)); higher = more functional. As to conditions: with PhoP (E. coli).
For the variant YYDT, the enrichment ratio was at most 0.25. Consider EDIQ, for which the enrichment ratio is at most 0.25.

Turning to KEFT, the enrichment ratio is at most 0.25. Next, PGFY: at most 0.25.

Turning to LHHC, the enrichment ratio is at most 0.25. WDEL: the enrichment ratio was at most 0.25. For the variant FPDF, the enrichment ratio was at most 0.25. As for QYEG, the enrichment ratio is at most 0.25. Next, TNYA: at most 0.25.

Consider FHTW, for which the enrichment ratio is 1.17. As for PDMW, the enrichment ratio was at most 0.25. As to DSQR, the enrichment ratio was at most 0.25. With VSAP, the enrichment ratio is at most 0.25. For the variant TNEV, the enrichment ratio was at most 0.25. WHLD: the enrichment ratio was at most 0.25. The value for ARAS was at most 0.25; that for GHVQ was at most 0.25; that for YQKM was at most 0.25. In the case of HEFP, the enrichment ratio was at most 0.25. For GGTT, the enrichment ratio is at most 0.25. Turning to FHSR, the enrichment ratio is at most 0.25.

For the variant YKPA, the enrichment ratio was at most 0.25. In the case of QATF, the enrichment ratio is at most 0.25. Take MSMC: the enrichment ratio worked out at 7.95. Turning to DKPI, the enrichment ratio was at most 0.25.

In the case of KLPY, the enrichment ratio is at most 0.25. Turning to MPNR, the enrichment ratio was at most 0.25. With NVRP, the enrichment ratio is at most 0.25.

Consider PPAT, for which the enrichment ratio is at most 0.25. Take VKCR: the enrichment ratio is at most 0.25. On to IMMC, for which the enrichment ratio was at most 0.25.

For FCSH, the enrichment ratio was at most 0.25. As to VYGK, the enrichment ratio was at most 0.25. Next, SQKH: at most 0.25.

Regarding EYRH, the enrichment ratio is at most 0.25. LTMS: the enrichment ratio was at most 0.25. For VGFN, the enrichment ratio was at most 0.25. Take YHTA: the enrichment ratio was 1.57. Next, KPSQ: at most 0.25; ADFN: at most 0.25. The value for VCYY was at most 0.25; that for HEVN was at most 0.25.

WQGF: the enrichment ratio is at most 0.25. On to VWRY, for which the enrichment ratio was at most 0.25.

In the case of KNPC, the enrichment ratio was at most 0.25. Take VRFR: the enrichment ratio is at most 0.25. As to NYQG, the enrichment ratio is at most 0.25. Next, YNVM: at most 0.25. Take HHAV: the enrichment ratio was at most 0.25.

Turning to FYRR, the enrichment ratio was at most 0.25. In the case of MEFL, the enrichment ratio was 8.98. As for TGRL, the enrichment ratio is at most 0.25. Take WKCK: the enrichment ratio was at most 0.25.

For RQYN, the enrichment ratio was at most 0.25. Take HRKA: the enrichment ratio is at most 0.25. For the variant GFTP, the enrichment ratio is at most 0.25. The value for PAKS was at most 0.25; that for EQDS was at most 0.25.

As for SNNK, the enrichment ratio is at most 0.25. As to YMAR, the enrichment ratio was at most 0.25. As to EIVD, the enrichment ratio is at most 0.25.

For CSAP, the enrichment ratio is at most 0.25. The value for ENPF was at most 0.25; that for YSIQ was at most 0.25. EPHI: the enrichment ratio is at most 0.25. With HLGN, the enrichment ratio is at most 0.25. In the case of GHEP, the enrichment ratio was at most 0.25. As for VINW, the enrichment ratio was at most 0.25. For the variant VYWV, the enrichment ratio was at most 0.25. For HAAY, the enrichment ratio was at most 0.25.

NAKT: the enrichment ratio is at most 0.25. Take YSNY: the enrichment ratio was at most 0.25. Turning to KGQA, the enrichment ratio was at most 0.25.

In the case of LFNI, the enrichment ratio is at most 0.25. On to MRHG, for which the enrichment ratio is at most 0.25. As to MYDC, the enrichment ratio was at most 0.25. Consider AKWE, for which the enrichment ratio is at most 0.25. Next, FGFE: at most 0.25; PIFF: at most 0.25.

On to NREH, for which the enrichment ratio was at most 0.25. With QIGF, the enrichment ratio was found to be 12.5. Consider LFLI, for which the enrichment ratio amounted to 0.396. Next, EMFS: at most 0.25; LHFK: at most 0.25; PWID: at most 0.25. Turning to PVTE, the enrichment ratio is at most 0.25. As to FSYV, the enrichment ratio is at most 0.25. The value for HTYC was at most 0.25. Consider IHTQ, for which the enrichment ratio was at most 0.25. Next, PKWE: at most 0.25; DYHT: at most 0.25; FPCT: at most 0.25. With NAYW, the enrichment ratio was at most 0.25. The value for KMWS was at most 0.25.

As to ENAM, the enrichment ratio is at most 0.25. With PANS, the enrichment ratio was at most 0.25. With AGGC, the enrichment ratio stood at 6.35. In the case of QLKL, the enrichment ratio is at most 0.25. With WMPK, the enrichment ratio is at most 0.25.

Consider RCNL, for which the enrichment ratio is at most 0.25. Take DYPC: the enrichment ratio is at most 0.25. As to DYYF, the enrichment ratio is at most 0.25. Consider ISMK, for which the enrichment ratio was at most 0.25. In the case of RGMR, the enrichment ratio is at most 0.25. For GAMR, the enrichment ratio is at most 0.25. The value for CHGY was at most 0.25; that for FVYI was at most 0.25. Take VGQS: the enrichment ratio was at most 0.25. For the variant DQYF, the enrichment ratio was at most 0.25. As to LYRL, the enrichment ratio was at most 0.25.

For the variant NWRQ, the enrichment ratio was at most 0.25. The value for YDYA was at most 0.25; that for AMFT was at most 0.25. Next, TNGT: 2.2. The value for RGTW was at most 0.25; that for HNYC was at most 0.25; that for NTGQ was at most 0.25.

As for KRHW, the enrichment ratio is at most 0.25. As for NNFS, the enrichment ratio was at most 0.25. Regarding MWSQ, the enrichment ratio is at most 0.25. Turning to TQSS, the enrichment ratio is 6.45. As to KNYA, the enrichment ratio was at most 0.25.

Take NQPF: the enrichment ratio was at most 0.25. Take MFIR: the enrichment ratio is at most 0.25.

As for CFMF, the enrichment ratio is at most 0.25. As to MCDG, the enrichment ratio is at most 0.25. On to PFPP, for which the enrichment ratio is 0.269.

As for AFYK, the enrichment ratio was at most 0.25. FPNY: the enrichment ratio was at most 0.25. Regarding LRFI, the enrichment ratio was at most 0.25.

Take SNPC: the enrichment ratio was at most 0.25.

Consider DVWN, for which the enrichment ratio was at most 0.25. Next, DIGL: at most 0.25; GNME: at most 0.25. On to PDIR, for which the enrichment ratio was at most 0.25.

As for GMFP, the enrichment ratio is at most 0.25.

In the case of KNNL, the enrichment ratio was at most 0.25. For DGCE, the enrichment ratio is at most 0.25.

As to NFTC, the enrichment ratio was at most 0.25. Next, AIVA: 8.17; TQYM: at most 0.25; YYIQ: at most 0.25. As for WPAM, the enrichment ratio was at most 0.25.

For HYWN, the enrichment ratio was at most 0.25. Regarding LILH, the enrichment ratio is at most 0.25. As for RASI, the enrichment ratio was at most 0.25. PAGT: the enrichment ratio was at most 0.25. Next, PGQE: at most 0.25; YWPA: at most 0.25. The value for TKHR was at most 0.25; that for DCIW was at most 0.25. The value for KHNF was at most 0.25; that for WIWV was at most 0.25.
